Measurements: PubChem BioAssay (NCI)
Some compounds were tested as several samples or in several runs, with calls that do not always agree.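 Single-dose data. Exposure time 48 hours. Values below 10 considered active.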 Some entries of the source have several records that differ or are many. This is not the full list of results. There may be further records. These are repeated runs of one drug, at its own concentration, as given; one value stands for one run. Counts like (3×) count equal records among those shown.

Test system: NCI-H522 lung
Test: NCI-60 one-dose screen, 48 h (100 = growth as untreated, 0 = no growth, -100 = all killed)

COc1cccc2c1C(=O)c1c(O)c3c(c(O)c1C2=O)C[C@@](O)(C(=O)CO)C[C@@H]3OC1CC(N)C(O)C(C)O1 (stereo not given in full)
growth (0.25 µM, runs of 2009): inactive: 22.3, 18.3, 41.2, 54.4, 70.6, 49.7, 65.1, 23.6, 30, 30.8, 71.2, 16.8, 20.7, 10.9 (2×), 12.2, 24.2, 25.1, 35, 11.5, 26.1, 11.9, 24.7 (2×), 47.4, 10.2, 15.3, 25.6, 14.7, 33.2, 39.1, 13.8, 13.9, 13.3, 17.4 (2×), 16.2% and active: -26.8, -12.1, 7.72 (2×), 5.79, -7.04, 8.1, -27, 1.11, -3.26, 6.34, -19.9, 7.53, 4.44, -5.92, 9.33, 1.25, -15.5, -3.43, -14, -13.9, -10.9, -28.2, -13.1, -33.1, -20.9, -15.7, -33.6, 6.53, 0.844, -1.45, 8.28%
growth (0.25 µM, runs of 2010): inactive: 29.7, 21.9, 45, 15.5, 22, 10.6, 22.7, 27.8, 15.3, 14.6, 16.4, 12.2, 12.9, 11.5, 29.4, 19.2, 19, 25.6, 38.2, 16.1, 13.3, 24.5, 22.5% and active: -5.11, 1.51, 0.0934, 1.72, -3.21, -3.39, 2.55, -4.98, -30.9, -26.8, -9.72, -8.95, 6.68, -6.88, -2.53, 6.93, 3.92, 1.32, 8.45, -8.96, 5.5, -5.31%
growth (0.25 µM, runs of 2011): inactive: 25.7, 14.6, 17.5, 22, 23.1, 34.4, 22.3, 45.6, 38.7, 42.3, 38, 37.3, 17.2, 22.9, 14.7, 19.2, 30.3, 11.8 (2×), 29, 28.5, 15, 33.9, 19.1, 17.3, 23, 20.6, 20.5, 27, 18.8, 32, 11.6, 13.4, 21.7% and active: 4.19, 7.83, 1.91, -5.93, -4.11, 8.34, -45.2, 6.43, 8.15, 3.24, -10.3, 9.38, 8.96, -1.24, -4.63, 7.69, 4.5, 4.38, 5.58, -1.72%
growth (0.25 µM, runs of 2012): inactive: 27.7, 22.9, 12.2, 22.3, 27.8, 29.7, 14.1, 15.8, 16.6, 15.3, 34.1, 35.6, 11.8, 35.5, 27.2, 16.3, 29 (2×), 30.3, 19.3, 15.2, 51.8, 37.9, 41.2, 46.5, 16, 28.5, 63.9, 42.9, 38, 18.8, 27.9, 10, 21.7, 18.3, 20.9, 31.8, 23.2, 10.7, 21.2, 16.7, 29.2, 61.6% and active: 4.37, 5.12, 1.13, 4.71, 2.72, 8.49, 0.406, 3.04, -3.83, 9.38, -6.39, -15.1, -2.69, 5.84, 4.63, 1.4, 5.18, 1.76, 2.31, 0.368, 9.18, 6.17, 8.64, -21.6%
growth (0.25 µM, runs of 2013): active: 4.75, 1.67, 5.68, 7.97, 2.53, 3.3, 6.31% and inactive: 57.6, 43.6, 22.7, 28.1, 18.2, 35.9, 16.8, 37.4, 16.4 (3×), 26.2, 25.8 (2×), 10.4, 22.4, 38.2, 22.8, 69, 40.8, 44.7 (2×), 71.3, 34.1, 28.5, 38.1, 33.2 (2×), 74.9, 71.9, 38.4, 46.1, 21.1, 22.9, 25.7, 21.2, 29.4, 17, 26.5, 20, 24.2, 36.1, 15.3, 57.2, 51.2, 49.8, 50.8, 39.4, 29.8, 30.9, 21, 13.3, 16.7 (2×), 19.2, 20.5, 23.5, 21.8, 26, 19%
growth (0.25 µM, runs of 2014): inactive: 26.1, 21.3, 19.8, 14.8, 26.8, 11.2, 11.3, 19.7, 18 (2×), 26.5, 19.2, 45.8, 32.2, 39.7 (2×), 49, 28.7, 35.9 (2×), 33.4, 32.7, 15.4, 22.5, 24.2, 14.6, 13.6 (2×), 13 (2×), 11.4, 19.6, 40, 38.7, 21.7, 23.7 (2×), 34.9, 28.1, 32.3, 29.4, 23.8, 21.5, 26.7, 14.4, 17.5, 23.2, 29.1, 23.9, 28, 12, 13.8, 16 (2×), 16.7, 16.6, 24.4, 17.6, 20.1, 21.4, 17.7, 18.2, 20.3, 10.5% and active: 8.55, 9.5, 9.61, 8.94, 3.47, 3.79, 1.21, 2.2, -0.758, 8.09, 5.57, 9.57, 8.68, 8.81, 4.95%
growth (0.25 µM, runs of 2015): inactive: 22.1, 16.5, 19.5, 24.2, 18.2, 34, 38.8, 35.3, 38.5, 38.4, 37.1, 20.7 (2×), 13.6 (2×), 16, 30.7, 30, 21.5 (2×), 32.6, 23.7, 28.2 (2×), 33.6, 35.1, 37.7, 26.2, 14, 15.7, 17.7, 15.5, 13, 17.5, 13.8, 15.8, 14.1, 22.8, 21.9, 11.1, 29.1, 25.4, 23.5, 31.1, 13.5, 30.8, 24.4, 24.9, 21.1, 27.4, 27.9, 12.9, 19.3, 27.7% and active: 1.61, 8.88, 3.85, 0.749, 7.06, 1.32, 7.12, 5.31, 7.51, 2.81, 5.4, 6.82, 6.44, 5.74, -11.9, 9.31, 8.82, -1.67, 1.3, 5.44, 7.54, 2.48, -11.2, 5.39, 2.99, 7.01, 8.33, 2.19, 7.19, 1.97, 5.92, -2.75%
growth (0.25 µM, runs of 2016): inactive: 25.5, 23.2, 27.9, 34.7, 16.8, 19.5, 20.7, 14.2, 15.3, 28.1, 22.6, 14.4, 15.4, 15.7, 27.1, 22.7, 22.5 (2×), 37.2, 37.1, 25.3, 26.7, 31.3, 31.7, 16.1, 14.7, 16, 13.5, 18.4, 15.1, 21, 17.9, 13.8, 20.6, 24.8 (2×), 26.5, 32.1, 22.3, 41.5, 19.7, 43.2, 41, 42.6, 34.1, 29.2, 35.4, 32.4, 40.5, 44.8, 30.3, 20.3, 23 (2×), 17.2, 24.6, 29.7, 19.9, 15, 13.9, 25.6 (2×), 31.9, 38.2, 28.2, 31, 34.6, 36.1, 26% and active: 9.16, 1.21, -5.05, -9.1, -1.93, 1.62, 0.327, 4.52, -8.83, 8.28, 9.83%
growth (0.25 µM, runs of 2017): inactive: 32.1, 30.7, 34.6, 17.2, 12.4, 17.6 (2×), 22 (2×), 13.8, 13.3, 13.9 (2×), 16.1, 15, 11.8, 11.2, 11.7, 24.3, 25.1, 17.3, 20.3, 13.1, 18.8, 33, 24.4, 26.8, 33.3, 27.3, 20.4, 25.3 (2×), 25.5, 27.4, 10.4, 15.3, 19.8, 14.6, 11.5, 18.1 (2×), 23.3, 27.7, 32.2, 10.5 (3×), 18.6, 23.5 (2×), 23.1, 25.6, 25.8 (2×), 31.1, 30.4, 19.7, 11.3, 10.1, 15.1, 10.8, 13.2, 10.6, 21, 14.2, 19.4, 24.9, 21.5% and active: 8.85, 9.93, 4.06, 9.24 (2×), 7.09, 9.8, 9.84, 4.89, 6.52, 4.18, 6.84, 8.91%
growth (0.25 µM, runs of 2018): inactive: 20.5, 18.9, 14.7, 10.8, 27.9, 27.6, 10.6 (2×), 12, 10.2, 22.4 (2×), 15.6, 22.8, 27.8, 28, 22.2, 15.5, 14, 14.1, 37.9, 26.1, 32.1, 23.4, 23.7, 18.3, 13.2 (2×), 19.9, 20, 17.6, 16.1, 19.6, 13.5, 15, 17.3, 20.8, 11.4, 11, 25.5% and active: 9.26, 8.01, 8.06, 8.58, 9.51, 5.72, -9.39, 6.03, 4.23, 8.02, 2.63, 6.15%
growth (0.25 µM, runs of 2019): inactive: 27.9, 17.5, 28.1, 17.3 (2×), 11.7 (2×), 14.8, 22.9, 16.8 (2×), 19.4 (2×), 19.8, 29.2, 24.4, 21.8, 17.4 (2×), 26.1, 24.6, 18.4, 25.8 (2×), 11.3, 10.5, 23.8, 26.8, 31.9, 27.1, 27.7, 19, 27, 23.2, 31.8, 30.7, 23, 15.1, 18.3, 12.4, 24.3, 38.1, 13.3, 24.7% and active: 1.27, 4.01, 9.25, 5.36, 6.81%
growth (0.25 µM, runs of 2020): inactive: 26.6, 32, 37.2, 35.8, 30.3, 11.5, 11.1, 21.4, 28.5, 24.7, 21.9, 15.2, 11.7, 20.3, 17.7, 30.7, 23.6, 34.7, 50.2, 33.3, 35.2, 37.9, 35.6, 44.2, 45.9, 26.4%
growth (0.25 µM, runs of 2021): inactive: 32.4, 40.8, 50.5, 38.3 (3×), 24.6 (2×), 31.5, 32, 13.1, 19.6, 16.1, 27, 12.9, 23.1, 23.5 (2×), 38 (2×), 28.1, 42.2, 29.9, 31.7, 31.2, 19.9, 51.3, 10.1, 13.9, 24.9, 21, 12.6, 29.2, 27.8, 46, 50.3, 17.2, 19.4, 10.5% and active: 5.91, 9.04, 9.59, 8.8, -10.4, -2.25, -2.05, -0.977, -2.57, 1.6%
growth (0.25 µM, runs of 2022): active: -50.6, -40.5, -46.8, 0.965, -6.22, 6.02, 6.33, -8.91, 2.92, -3.09% and inactive: 29.8, 14.4 (2×), 13.2, 27.7, 16.2, 13.1, 13.3, 45.1, 65.8, 70.1, 46, 83.9, 38.1, 37.4, 34.7, 26.1%
growth (25 µM, runs of 1991): active: -82.9, -68.1, -78.2, -87.5, -90, -89.4, -75.4, -92.9, -93.8, -64, -80.1, -81.5, -88.9, -95, -98.8, -94.7, -87.9, -95.1, -74.6%
